Several values for one entry are separate records, joined by “and”; a condition that tells them apart may be missing. Equal entries are not always repeated. Activity calls are given as the source filed them. Unless noted, the call rests on the fitted dose curve.
Experiments:
[1] = qHTS assay for small molecule agonists of the p53 signaling pathway (AID 651631); details: HCT-116 p53RE-bla reporter, beta-lactamase FRET ratio, 16 h; activation: at 73.3 µM (top of the series) unless noted; further: nearly all actives have a fitted effect of over 15% in size
Method in brief: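 HCT-116 cells carrying a stable p53 response element–beta-lactamase reporter were plated, rested 5 h at 37 °C, then exposed to compound in DMSO for 16 h at 37 °C; reporter activity was read as FRET substrate fluorescence after 2 h at room temperature.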

[2] = qHTS assay for small molecule agonists of the p53 signaling pathway - cell viability (AID 651633); details: p53RE-bla HCT-116 viability, ATP luminescence, 16 h; series mostly up to 83.3 µM; further: nearly all actives have a fitted effect of over 30% in size
Method in brief: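 Viability counter-read: CellTiter-Glo luminescence (30 min, room temperature) in the same p53RE-bla plates. These plates had been exposed to compounds for 16 h at 37 C.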

[3] = qHTS assay for small molecules that induce genotoxicity in human embryonic kidney cells expressing luciferase-tagged ATAD5 - cell viability (AID 651634); details: HEK293T ATAD5-luc cells viability, CellTiter-Fluor, 15.5 h; series mostly up to 83.3 µM; further: nearly all actives have a fitted effect of over 25% in size
Method in brief: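 After 15.5 hr incubation with compound at 37C, 5% CO2, HEK293T ATAD5-luciferase cells received CellTiter-Fluor reagent; fluorescence intensity was quantified following 30 min at 37C.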

[4] = qHTS assay for small molecule disruptors of the mitochondrial membrane potential - cell viability (AID 720634); details: HepG2 viability, ATP luminescence (CellTiter-Glo), 1 h; series mostly up to 83.2 µM; further: nearly all actives have a fitted effect of over 20% in size
Method in brief: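 ATP-based luminescent viability readout (CellTiter-Glo, 30 min, room temperature) in HepG2 cells multiplexed with the m-MPI membrane potential dye; compound exposure lasted 1 hr at 37 C.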

[5] = qHTS assay for small molecule disruptors of the mitochondrial membrane potential (AID 720635; active means well fitted curve in the direction sought with a large enough effect in the repeat runs; inconclusive means weak or mixed curves; inactive means no such curve, though single readings can be large; an effect the other way counts as inactive or inconclusive; on ratio activity, negative = MMP loss: on the % scale 0 is the no-effect control and ±100 the full control effect); details: HepG2 mitochondrial membrane potential, Mito-MPS dye ratio; ratio activity, negative = MMP loss: at 83.2 µM (top of the series) unless noted
Method in brief: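 Mitochondrial membrane potential tracked with Mito-MPS dye, red aggregates (ex 540/em 590 nm) against green monomers (ex 490/em 535 nm). Compound treatment 1 hr at 37C, dye 30 min in HepG2.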

[6] = biological target: Glucocorticoid receptor (Homo sapiens) (UniProt P04150); assay: qHTS assay to identify small molecule agonists of the glucocorticoid receptor (GR) signaling pathway (AID 720691; active means well fitted activation curve with a large enough effect in the signal ratio in the repeat runs, not every such curve was filed as active; inconclusive means weak or mixed curves, or effect the other way; inactive means no such curve, though single readings can be large or run the other way; the % refers to the signal ratio); details: GR-bla HeLa, beta-lactamase reporter ratio, 18 h; activation: at 62.4 µM (top of the series) unless noted
Method in brief: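 Cells: GR-bla HeLa, endogenous GR with stably integrated GRE-beta-lactamase reporter. Treatment 18 h, 37 C, compounds delivered in DMSO. Detection via LiveBLAzer B/G FRET substrate, 2 h RT, fluorescence intensity.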

[7] = biological target: Glucocorticoid receptor (Homo sapiens) (UniProt P04150); assay: qHTS assay to identify small molecule antagonists of the glucocorticoid receptor (GR) signaling pathway (AID 720692; active means well fitted inhibition curve with a large enough effect in the signal ratio in the repeat runs, not every such curve was filed as active; inconclusive means weak or mixed curves, or effect the other way; inactive means no such curve, though single readings can be large or run the other way; the % refers to the signal ratio; on activity change, negative = inhibition: on the % scale 0 is the no-effect control and ±100 the full control effect); details: GR-bla HeLa, beta-lactamase FRET ratio, dexamethasone-stimulated, 18 h; activity change, negative = inhibition: at 58.5 µM (top of the series) unless noted
Method in brief: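 Quantitative HTS in antagonist format: HeLa cells expressing endogenous GR and a stably integrated GRE-bla reporter, stimulated with 5 nM dexamethasone (final) alongside test compounds for 18 h.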

[8] = qHTS assay to identify small molecule antagonists of the glucocorticoid receptor (GR) signaling pathway - cell viability counter screen (AID 720693; active means well fitted curve in the direction sought with a large enough effect in the repeat runs; inconclusive means weak or mixed curves; inactive means no such curve, though single readings can be large; an effect the other way counts as inactive or inconclusive; further: nearly all actives have a fitted effect of over 55% in size); details: GR-bla HeLa viability, CellTiter-Glo luminescence, 18 h, with 5 nM dexamethasone present; viability change, negative = cytotoxic: at 58.5 µM (top of the series)
[9] = qHTS assay for identifying genotoxic compounds that show differential cytotoxicity against isogenic chicken DT40 cell lines with known DNA damage response pathways - wild type cell line (AID 743012; active means well fitted curve in the direction sought with a large enough effect in the repeat runs; inconclusive means weak or mixed curves; inactive means no such curve, though single readings can be large; an effect the other way counts as inactive or inconclusive; further: nearly all actives have a fitted effect of over 60% in size); details: DT40 wild type chicken cells viability, CellTiter-Glo, 40 h; activity change, negative = cytotoxicity: at 68.4 µM (top of the series)
Method in brief: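 Luminescent ATP viability signal (CellTiter-Glo, 30 min RT) recorded after wild type DT40 cells were incubated with compounds for 40 h at 37 C/5% CO2.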
Potency means the concentration at half of the fitted maximal effect; tags describe the fitted curve by direction and shape or compound fluorescence and quenching.

Chain of UniProt P04150 (P04150 whole entry, looked up): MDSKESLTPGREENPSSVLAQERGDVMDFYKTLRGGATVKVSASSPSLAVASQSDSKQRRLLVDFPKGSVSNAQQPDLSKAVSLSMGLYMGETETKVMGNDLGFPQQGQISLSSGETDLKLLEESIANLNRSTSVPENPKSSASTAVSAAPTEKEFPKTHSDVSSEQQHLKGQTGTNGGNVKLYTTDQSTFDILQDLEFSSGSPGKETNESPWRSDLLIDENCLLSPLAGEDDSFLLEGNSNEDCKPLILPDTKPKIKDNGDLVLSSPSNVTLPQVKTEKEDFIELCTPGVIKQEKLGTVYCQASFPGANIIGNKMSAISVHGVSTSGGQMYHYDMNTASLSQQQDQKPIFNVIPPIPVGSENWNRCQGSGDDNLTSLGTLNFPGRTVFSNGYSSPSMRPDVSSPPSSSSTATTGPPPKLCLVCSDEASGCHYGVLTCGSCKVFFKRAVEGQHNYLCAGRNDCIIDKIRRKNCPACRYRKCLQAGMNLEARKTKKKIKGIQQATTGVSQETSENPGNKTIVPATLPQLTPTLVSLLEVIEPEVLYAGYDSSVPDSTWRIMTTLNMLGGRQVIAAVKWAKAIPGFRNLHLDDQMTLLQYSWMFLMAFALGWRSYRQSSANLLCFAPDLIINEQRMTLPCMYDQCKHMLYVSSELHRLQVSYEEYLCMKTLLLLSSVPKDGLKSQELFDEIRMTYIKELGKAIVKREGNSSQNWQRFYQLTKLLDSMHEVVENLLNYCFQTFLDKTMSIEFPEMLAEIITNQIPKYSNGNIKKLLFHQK

SMILES | Potency [1] | Potency [2] | Potency [3] | Potency [4] | Potency [5] | Potency [6] | Potency [7] | Potency [8] | Potency [9] | ratio activity, negative = MMP loss [5] | activity change, negative = inhibition [7]
CCCCC(CC)COC(=O)c1ccc(O)cc1 (configuration not stated) | inconclusive: 60.9 µM [cytotoxic] and inconclusive: 61.1 µM | inconclusive: 30.6 µM [cytotoxic, partial curve] | inconclusive: 68.3 µM [falling, single point] | active: 8.6 µM and active: 24.3 µM | active: 5.43 µM and active: 6.11 µM | inconclusive: 24.5 µM [cytotoxic] and inconclusive: 54.9 µM [cytotoxic] | inconclusive: 48.8 µM [cytotoxic] and inconclusive: 54.9 µM [cytotoxic] | active: 43.5 µM and inconclusive: 54.9 µM [cytotoxic, single point] | inconclusive: 68.3 µM [cytotoxic, single point] and inconclusive: 43.3 µM [cytotoxic, partial curve] | – | –
O=C1NCN(c2ccccc2)C12CCN(CCCC(c1ccc(F)cc1)c1ccc(F)cc1)CC2 | inconclusive: 26.6 µM [cytotoxic, partial curve] | active: 26.6 µM | active: 26.6 µM | active: 21.1 µM | active: 19.7 µM | inconclusive: 15.1 µM [cytotoxic, partial curve] | inconclusive: 23.9 µM [cytotoxic, partial curve] | – | – | – | –
CCc1cc(Cc2cc(CC)c(N)c(CC)c2)cc(CC)c1N | inconclusive: 61.1 µM [cytotoxic] | inconclusive: 68.6 µM [cytotoxic, single point] | – | inconclusive: 30.6 µM [cytotoxic, partial curve, poor fit] | active: 27.3 µM | inconclusive: 61.7 µM [cytotoxic] | active: 43.6 µM | inconclusive: 43.6 µM [cytotoxic, partial curve] | active: 61.1 µM | – | –
CN1CCN(CCCN2c3ccccc3Sc3ccc(C(F)(F)F)cc32)CC1 | inconclusive: 33.5 µM [cytotoxic] | active: 29.8 µM | inconclusive: 33.5 µM [falling, single point] | inconclusive: 33.5 µM [cytotoxic, single point] | inconclusive: 5.96 µM [activator, partial curve] | – | inconclusive: 26.8 µM [cytotoxic] | inconclusive: 26.8 µM [cytotoxic, single point] | – | – | –
ClC1=C(Cl)C(Cl)(Cl)C(Cl)=C1Cl | inconclusive: 15.4 µM and inconclusive: 54.5 µM [cytotoxic, partial curve] | active: 13.8 µM and inconclusive: 61.1 µM [cytotoxic, single point] | active: 6.9 µM and active: 15.4 µM | – | active: 61.1 µM | – | active: 13.8 µM | – | – | inconclusive: -24.1% [at 95.3 µM] | inconclusive: -26.3% [at 78.9 µM]
O=C(CCCCCCCCc1cccnc1)N1CCC(C=C(c2ccccc2)c2ccccc2)CC1 | inconclusive: 24.3 µM [cytotoxic] | active: 24.3 µM | – | active: 19.3 µM | active: 24.3 µM | inconclusive: 17.4 µM [falling, full curve] | active: 21.9 µM | active: 34.7 µM | – | – | –
Cc1c2ccccc2c(C)c2c1ccc1ccccc12 | active: 30.3 µM and active: 54.5 µM | inconclusive: 48.1 µM [cytotoxic, partial curve] and inconclusive: 61.1 µM [cytotoxic] | – | inconclusive: 27.3 µM [cytotoxic, partial curve] | active: 5.39 µM and active: 24.3 µM | active: 3.85 µM and active: 54.9 µM [inconclusive] | inconclusive: 24.3 µM [activator, partial curve] and inconclusive: 34.7 µM [inhibitor, partial curve] | inconclusive: 43.2 µM [cytotoxic, partial curve, poor fit] and inconclusive: 54.9 µM [cytotoxic, single point] | – | – | –
